# From article PMC4336329 (PLoS ONE, 2015)
# Out of some 310,000 compounds screened, about 2,200 (0.71%) showed an effect of 50% or more. Effects have a minus sign here. The list shows a part of the results.
# Biological target: human ether-à-go-go-related gene (hERG) potassium channel (human, UniProt Q12809)
# Experiment: primary screen, population patch clamp on CHO cells stably expressing hERG
# Chain of human ether-à-go-go-related gene (hERG) potassium channel (Q12809 whole entry, looked up): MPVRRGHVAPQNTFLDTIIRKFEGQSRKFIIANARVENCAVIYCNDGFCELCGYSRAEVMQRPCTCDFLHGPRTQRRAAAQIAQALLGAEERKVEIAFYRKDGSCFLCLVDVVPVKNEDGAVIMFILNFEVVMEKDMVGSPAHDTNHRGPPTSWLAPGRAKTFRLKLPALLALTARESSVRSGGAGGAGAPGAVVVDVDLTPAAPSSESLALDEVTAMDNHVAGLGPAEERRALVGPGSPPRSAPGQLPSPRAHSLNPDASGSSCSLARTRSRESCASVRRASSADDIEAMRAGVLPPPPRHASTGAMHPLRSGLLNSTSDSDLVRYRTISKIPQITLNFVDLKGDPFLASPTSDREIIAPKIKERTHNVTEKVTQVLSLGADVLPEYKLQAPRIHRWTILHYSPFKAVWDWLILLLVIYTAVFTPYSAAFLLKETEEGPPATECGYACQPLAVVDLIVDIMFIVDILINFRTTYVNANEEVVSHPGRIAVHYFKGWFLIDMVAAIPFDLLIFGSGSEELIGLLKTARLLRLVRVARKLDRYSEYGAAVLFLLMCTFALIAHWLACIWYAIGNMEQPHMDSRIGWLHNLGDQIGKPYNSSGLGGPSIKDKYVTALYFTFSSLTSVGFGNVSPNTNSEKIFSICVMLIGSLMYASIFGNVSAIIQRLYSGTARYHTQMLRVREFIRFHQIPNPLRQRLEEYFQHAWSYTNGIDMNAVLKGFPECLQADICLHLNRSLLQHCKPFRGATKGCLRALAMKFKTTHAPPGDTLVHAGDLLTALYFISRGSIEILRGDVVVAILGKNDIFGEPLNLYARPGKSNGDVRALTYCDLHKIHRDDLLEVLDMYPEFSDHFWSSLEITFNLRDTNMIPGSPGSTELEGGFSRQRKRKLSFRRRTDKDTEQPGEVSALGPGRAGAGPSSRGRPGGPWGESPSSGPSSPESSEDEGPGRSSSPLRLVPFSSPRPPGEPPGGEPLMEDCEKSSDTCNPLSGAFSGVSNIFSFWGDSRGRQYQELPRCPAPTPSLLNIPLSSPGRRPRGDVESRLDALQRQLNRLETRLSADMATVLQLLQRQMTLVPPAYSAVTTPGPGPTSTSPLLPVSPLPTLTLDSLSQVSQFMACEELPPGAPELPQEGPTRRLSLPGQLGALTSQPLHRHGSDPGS
row,SMILES,"hERG current change (%, negative = inhibition) at 1uM [%]"
1,CSc1ccc(CNC(C)C(O)c2ccccc2)cc1.Cl (stereo not shown),-12.5
2,Cc1ccc(S(=O)(=O)CCC(=O)Nc2ccccc2C)cc1,13.2
3,CCOc1cc(N2CCOCC2)c(OCC)cc1NC(=O)Cc1cn2ccsc2n1,10.1
4,COc1ccccc1N1CCN(C(=O)c2oc3ccc(F)cc3c2C)CC1,11.2
5,O=c1[nH]c(SCc2ccc(F)cc2)nc2c1cnn2-c1ccc(F)cc1,14.8
6,CCN(CC)S(=O)(=O)c1ccc(Oc2ccccc2OC)cc1,9.64
7,CN(C(=O)COc1nnc(-c2cccs2)c(-c2cccs2)n1)c1ccccc1,5.68
8,CCOC(=O)CC(NC(=O)c1cc2cc(Cl)cc(Cl)c2oc1=O)c1cccc([N+](=O)[O-])c1 (stereo not shown),-3.81
9,O=C(Cn1cnc2c(nnn2-c2ccc(F)cc2)c1=O)NCC1CCCO1 (stereo not shown),19.1
10,CC(O)Cn1c(N2CCCC2)nc2c1c(=O)[nH]c(=O)n2C (stereo not shown),13.4
11,CCOc1ccc(Nc2ccc(C(=O)O)cc2[N+](=O)[O-])cc1,15
12,Cc1ccc(C(=O)NCCNC(=O)Cc2ccccc2)cn1,12.9
13,O=c1c([N+](=O)[O-])c(NCCN2CCCCCC2)c2ccccc2n1-c1ccccc1,8.01
14,CCCC(=O)Nc1nn(C)c2nc3c(C)cccc3cc12,2.08
15,c1ccc(-n2ncc3cccnc32)cc1,8.57
16,Cc1ccc(-c2nc(CN(C)C)cc(CN(C)C)c2O)cc1.Cl,2.81
17,CC(C)CNS(=O)(=O)c1ccccc1C(=O)N1CCCCC1,2.36
18,C=CC[N+]1(C)CC[C@]23c4c5ccc(O)c4O[C@H]2C(=O)CC[C@@]3(O)[C@H]1C5.[I-] (stereo partly shown),15.1
19,CCn1c(=O)c(C(=O)NNC(=O)c2ccccc2F)c(O)c2ccccc21,10.7
20,CC1(C)CC(=O)C2=C(C1)OC(=O)C2(NC(=O)c1cccs1)C(F)(F)F (stereo not shown),7.69
21,O=C(COc1ccc([N+](=O)[O-])cc1)Nc1ccc2c(c1)CCC2,1.22
22,c1ccc(CCNc2ccc3nncn3n2)cc1,9.46

row,SMILES,"hERG current change (%, negative = inhibition) at 1uM [%]"
1,COc1cc(SC)ccc1C(=O)NCCOc1ccc(C)c(C)c1,4.17
2,CC1(C)CC(=O)C(C2C3=C(CC(C)(C)CC3=O)OC3=C2C(=O)CC(C)(C)C3)=C(O)C1,11.6
3,COc1cccc(C(=O)Nc2cccc(NC(=O)c3cccs3)c2)c1,7.99
4,O=C(COc1ccccc1F)Nc1c2c(nn1-c1ccccc1)CS(=O)(=O)C2,-5.15
5,Cc1ccc(CNS(=O)(=O)NCc2cccs2)cc1,8.05
6,CC(C)NC(=O)c1ccccc1NC(=O)c1ccccc1N(C)S(C)(=O)=O,13.6
7,CCCCc1ccc(NC(=O)C(C)CC)cc1 (stereo not shown),-12.5
8,O=C(CCCn1nnnc1CN1CCOCC1)N1CCC(c2ccccc2Cl)C1 (stereo not shown),8.33
9,CC1Nc2ncnc(N3CCN(c4ccccc4)CC3)c2N(Cc2ccc(Br)cc2)C1=O.O=C(O)C(F)(F)F (stereo not shown),6.85
10,CCn1c(C)c2c(C)nnc(C)c2c1C,6.86
11,CCCS(=O)(=O)c1nc(S(=O)(=O)c2ccc(C)cc2)c(N2CCN(CCO)CC2)s1,4.23
12,CC(=O)c1c(C)[nH]c(C(=O)COC(=O)c2ccc(Cl)nc2)c1C,14.1
13,CCCCn1c(O)c(C(CC)=NCc2ccc(F)cc2)c(=O)[nH]c1=O,16.9
14,CN(C)c1ccc(C2/C(=C(/O)c3ccc(Br)cc3)C(=O)C(=O)N2C)cc1 (stereo not shown),-1.38
15,Cc1ccc(N2CCN(S(=O)(=O)c3c(C)noc3C)CC2C)cc1 (stereo not shown),3.24
16,COc1cccc(CN2CCN(C(=O)c3cc(-c4ccccn4)nc4ccc(Cl)cc34)CC2)c1,13.3
17,O=C(O/N=C1\CCS(=O)(=O)c2sccc21)c1ccc(F)cc1,12.3
18,COc1ccc(N2C(=S)N(C(=O)c3ccccc3)C(=Nc3ccccc3)C2=Nc2ccccc2)cc1,-4.84
19,Cc1ccc2nc(-c3ccccc3O)c(Nc3ccc4c(c3)OCCO4)n2c1,11.5
20,CC(=O)N1CCc2cc(S(=O)(=O)NCCN3CCC(C)CC3)ccc21,11.4
21,CCOC(=O)CNC(=O)CSc1nc2cccnc2n1C,-1.34
